Assay results as given in PubChem BioAssay AID488969 (Vanderbilt High Throughput Screening Facility, 2010).
The full ranking holds about 110,000 compounds; the median of “z-score” is about -0.1, and the highest 2% start at about 2. This is one part of the list. Active and inactive are the calls of the source.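 The calls were made as follows: active = z-score in the third read window above 3 or below -3; inactive = the rest.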

The compounds below were run against Metabotropic glutamate receptor 8 (Rattus norvegicus) (UniProt P70579) (assay: mGluR8 Gi/Go-coupled signaling modulation – cell-based, rat, thallium flux, HTS, primary screen (AID 488969)). Settings: HEK293 rat mGluR8, GIRK (G protein-gated inwardly rectifying potassium channel) thallium flux, FluoZin2; at 10 µM; stronger effect = higher value; submaximal glutamate (EC20) added with thallium.
Sequence of UniProt P70579 (P70579 whole entry, looked up): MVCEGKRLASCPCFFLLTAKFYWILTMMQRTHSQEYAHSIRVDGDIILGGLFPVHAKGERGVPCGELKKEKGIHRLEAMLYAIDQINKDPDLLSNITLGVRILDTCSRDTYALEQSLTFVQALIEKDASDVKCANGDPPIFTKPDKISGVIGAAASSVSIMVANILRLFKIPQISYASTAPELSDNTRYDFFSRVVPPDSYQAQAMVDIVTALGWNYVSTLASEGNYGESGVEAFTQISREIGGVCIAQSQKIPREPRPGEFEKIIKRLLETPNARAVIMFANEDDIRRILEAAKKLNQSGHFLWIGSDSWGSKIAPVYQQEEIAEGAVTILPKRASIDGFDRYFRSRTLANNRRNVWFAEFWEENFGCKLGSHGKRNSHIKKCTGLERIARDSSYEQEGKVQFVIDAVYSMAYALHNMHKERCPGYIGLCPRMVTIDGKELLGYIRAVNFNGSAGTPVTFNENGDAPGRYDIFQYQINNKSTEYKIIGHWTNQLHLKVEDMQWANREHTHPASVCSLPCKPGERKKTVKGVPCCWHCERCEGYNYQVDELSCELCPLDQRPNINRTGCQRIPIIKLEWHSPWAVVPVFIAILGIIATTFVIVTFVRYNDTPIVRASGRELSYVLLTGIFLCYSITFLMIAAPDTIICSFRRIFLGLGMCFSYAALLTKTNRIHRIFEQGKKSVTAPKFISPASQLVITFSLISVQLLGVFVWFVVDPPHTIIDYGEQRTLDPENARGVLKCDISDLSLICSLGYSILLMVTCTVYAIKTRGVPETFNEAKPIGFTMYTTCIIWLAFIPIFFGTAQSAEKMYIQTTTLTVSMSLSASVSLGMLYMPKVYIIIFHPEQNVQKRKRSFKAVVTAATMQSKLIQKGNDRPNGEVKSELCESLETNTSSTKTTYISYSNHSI

| SMILES | z-score |
| --- | --- |
| CCn1c(SCc2ccc(C)cc2)nnc1C1CCN(S(=O)(=O)c2ccc(OC)cc2)CC1 | 0.387 |
| CCOC(=O)c1c(C)n(C)c2ccc(OC(=O)c3ccc([N+](=O)[O-])cc3)cc12 | -0.168 |
| COc1ccc(OCCC(=O)OCC(=O)Nc2ccc(Br)cc2)cc1 | 0.337 |
| O=C(c1ccc(Br)o1)N1CCN(c2ccc3nnc(-c4ccccc4)n3n2)CC1 | -1.78 |
| CC(=O)Nc1nc(SCc2ccc(Cl)cc2Cl)n[nH]1 | -0.0823 |
| COc1ccc(C)cc1NC(=O)CSc1nnc(-c2ccccn2)n1Cc1ccco1 | 0.359 |
| COc1ccc(CCn2c(C)cc(C(=O)CSc3nnnn3C)c2C)cc1 | -0.317 |
| Cc1ccccc1Nc1nnc(SCC(=O)N(C)C2CCS(=O)(=O)C2)s1 (stereo not given) | -0.0982 |
| O=C(Nc1ccc(S(=O)(=O)Nc2ccccc2)cc1)C1COc2ccccc2O1 (stereo not given) | -0.811 |
| O=C(Cc1ncc(C(F)(F)F)cc1Cl)N1CCN(c2ccc(F)cc2)CC1 | -0.125 |
| CCc1cccc(CC)c1NC(=O)C(NS(=O)(=O)c1cccs1)c1ccccc1 (stereo not given) | -0.321 |
| O=C(COC(=O)c1cccc(S(=O)(=O)N2CCOCC2)c1)Nc1nc(-c2ccccc2Cl)cs1 | -0.143 |
| O=C(Nc1cccn(Cc2ccc(F)cc2)c1=O)NC1CCCCC1 | -0.23 |
| Cc1c(C(=O)O)sc2ncn(C)c(=O)c12 | 0.364 |
| COc1cc(OC)cc(C(=O)NCCCN2CCN(CCCNC(=O)c3cc(OC)cc(OC)c3)CC2)c1 | -0.137 |
| COC(=O)CNC(=O)COC(=O)c1cc(F)c(F)cc1Cl | -0.284 |
| CCOc1ccc(OCC)c(NC(=O)c2[nH]c(C)c(C(C)=O)c2C)c1 | 0.862 |
| CCOC(=O)CSc1cc(C)nc(N)n1 | -0.197 |
| CCCCNC(=O)CSc1nnc(-c2c[nH]c3ccccc23)n1CC1CCCO1 (stereo not given) | -0.272 |
| COc1ccc(OC)c2sc(NC(=O)C3=COCCO3)nc12 | -0.168 |
| O=C(NCc1ccco1)[C@@H]1CSC2c3ccccc3C(=O)N21 (stereo not given in full) | 0.102 |
| Cc1ccc(-c2nn(CC(=O)Nc3ccc4c(c3)nc3n4CCOC3)c(=O)c3ccccc23)cc1 | -0.236 |

| SMILES | z-score |
| --- | --- |
| Cc1nn(-c2ccccc2)c(OC(=O)c2cccs2)c1S(=O)(=O)c1ccc([N+](=O)[O-])cc1 | 0.288 |
| CCC12CN(C(=O)c3ccc(C)cc3)CC(CC)(CN(C(=O)c3ccc(C)cc3)C1)C2=O | -0.191 |
| O=C1CCCC2=C1C(c1ccncc1)Nc1ccccc1N2 (stereo not given) | -0.194 |
| CC(Oc1ccccc1F)C(=O)NCCN1CCCCC1 (stereo not given) | 0.182 |
| Cc1ccc(-c2csc3nnc(SCc4csc(C)n4)n23)cc1 | -0.489 |
| Nc1cc(-c2cccc(Br)c2)nn1Cc1ccccc1 | 0.00672 |
| Cn1c(=O)c2c(nc(Oc3ccc4ccccc4c3)n2C)n(C)c1=O | 0.32 |
| N#CCCN(CCC#N)C(=O)c1ccc2c(c1)OCO2 | 0.193 |
| CC1=CC(=O)N(c2cccc(C(F)(F)F)c2)C1c1ccc(Cl)cc1 (stereo not given) | -0.739 |
| COc1ccc(CCNC(=O)CSc2nc3ccccc3o2)cc1 | -0.405 |
| Cc1sc2nc(C(C)C)nc(SCC(=O)N3CCN(C(=O)c4ccco4)CC3)c2c1C | 0.591 |
| O=C1NC(=O)C2(COC(c3cccnc3)OC2)S1 (stereo not given) | 2.49 |
| CC(C)c1nnc(NC(=O)CCC(=O)N2CCN(c3ccccn3)CC2)s1 | 0.00447 |
| Cc1cc(C)cc(NC(=S)/N=C(\N)Nc2nc(C)c3ccccc3n2)c1 | -0.00288 |
| CC(Cl)C(=O)NNc1cccc(Cl)n1 (stereo not given) | -0.0997 |
| COc1ccccc1CNC(=O)c1ccccc1NS(C)(=O)=O | 0.327 |
| COc1ccc(Cc2nnc(SCC(=O)NC3CCCCC3)n2C)cc1 | -0.16 |
| c1ccc(CN2CCN(c3nc4ccccc4n4cnnc34)CC2)cc1 | -0.0719 |
| CCCCCn1c(C(Cc2ccccc2)NC(C)=O)nc2ccccc21 (stereo not given) | -1.11 |
| Cc1cc(C)cc(N2CCN(C(=O)N3CCOCC3)CC2)c1 | 0.426 |
| Cc1ccc2nc(SCc3ccccc3)c(C=O)c(=O)n2c1 | -0.181 |
| CCC(C)N1CC(O)=C(c2nc3ccccc3[nH]2)C1=N (stereo not given) | 0.185 |

| SMILES | z-score |
| --- | --- |
| Nc1nnc(SCc2ccc(F)cc2)n1-c1ccccc1 | -0.0735 |
| Cc1csc(NC(=O)C2CCCC2)n1 | 0.0786 |
| CC(C)CCNC(=O)COC(=O)c1ccc(Br)o1 | -0.14 |
| COC(=O)c1sccc1NC(=O)CSc1ccccc1NS(=O)(=O)c1ccc(Cl)cc1 | active: 3.6 |
| CCOc1cc(/C=C2\N=C(C)OC2=O)cc(Br)c1OCCc1ccccc1 | -0.152 |
| CC(CN1CCN(C)CC1)OC(=O)c1ccc(Cl)cc1Cl (stereo not given) | 0.335 |
| C=CCCCCCCCCc1nc(=S)[nH][nH]1 | active: 9.76 |
| O=c1c(Cl)c(NCc2ccc(F)cc2)cnn1C12CC3CC(CC(C3)C1)C2 | 0.25 |
| OCCN(CCO)c1ccc(C(c2ccccc2Cl)c2ccc(N(CCO)CCO)cc2Cl)c(Cl)c1 | -0.563 |
| COC(=O)/C=C1/S/C(=N/NC(=O)c2ccccc2)NC1=O | -0.236 |
| O=C(CCCN1C(=O)c2ccccc2C1=O)Nc1sc2c(c1C(=O)NCc1ccco1)CCC2 | -0.742 |
| O=c1c2ccccc2cnn1-c1ccc(Br)cc1 | -0.172 |
| Cc1ccsc1/C=N/N1CCN(C2c3ccccc3-c3ccccc32)CC1 | 0.148 |
| CCOc1ccccc1C(=O)N(C)Cc1cc2cc(OC)ccc2[nH]c1=O | -0.0838 |
| O=C(N/N=C/c1cccc(O)c1)c1ccc(COc2ccc3c(c2)CCC3)o1 | -0.108 |
| CCOC(=O)c1cccc(NC(=O)c2cnc3ccccc3n2)c1 | -0.0643 |
| COc1ccc2c(COC(=O)CC3Sc4ccccc4NC3=O)cc(=O)oc2c1 (stereo not given) | 0.104 |
| CN(C(=O)CSc1ccccc1C(=O)O)C1CCCCC1 | -0.392 |
| COc1ccc(OC)c(-c2cc(C(=O)Nc3c(C)n(C)n(-c4ccccc4)c3=O)no2)c1 | -0.0663 |
| CCOC(=O)c1ccc2c(c1)N(CC(=O)N1CCCCC1)C(=O)C(C)(C)O2 | -0.49 |
| Cc1cc(C)n(-c2nc3c(c(=O)n(C)c(=O)n3C)n2CC(O)COc2ccccc2C)n1 (stereo not given) | -0.0267 |
| COc1cc2[nH]c(=O)n(CCCCCC(=O)N3CCN(c4ccccn4)CC3)c(=O)c2cc1OC | -1.02 |

| SMILES | z-score |
| --- | --- |
| CC(=O)c1c(C)[nH]c(C(=O)N2CCN(c3cc(Cl)ccc3C)CC2)c1C | 0.12 |
| Cn1c(=O)cc(SCC(=O)N2CCN(c3ccccn3)CC2)c2ccccc21 | 0.188 |
| COc1cc(/C=N/NC(=O)/C(=C\c2ccc3c(c2)OCO3)NC(=O)c2ccccc2)ccc1O | -0.292 |
| O=C(CSc1nccc(=O)[nH]1)Nc1ccc(F)c(Cl)c1 | -0.262 |
| Cc1ccc([N+](=O)[O-])cc1/C=N/Nc1nnnn1-c1ccccc1 | 0.0259 |
| N#C/C(=C\c1ccc(F)c(F)c1)C(=O)NC1CCCCC1 | -0.686 |
| CC(=O)c1ccccc1OCCCN1CCCCC1 | -0.246 |
| Cc1ccc(-n2c(N)c(C(=O)NCc3cccnc3)sc2=S)cc1 | 0.285 |
| CCOC(=O)c1c(C)[nH]c(C(=O)COC(=O)c2ccc(F)c(S(=O)(=O)N3CCOCC3)c2)c1C | 0.141 |
| CCOC(=O)C1C(=O)C=C(/C=C/c2ccc(N(C)C)cc2)CC1c1ccccc1 (stereo not given) | 0.242 |
| CCCCS(=O)(=O)NC1=NCN(Cc2ccco2)CN1 | 0.156 |
| Cc1ccc(CN2CCN(/N=C/c3ccc(C)s3)CC2)cc1 | -0.944 |
| CCOC(=O)/C(C#N)=C/c1c[nH]c2ccccc12 | -0.126 |
| COC(=O)c1cn(NC(=O)C2CCC(C(C)(C)C)CC2)c(=O)c2ccccc12 (stereo not given) | -0.41 |
| CCCNC(=S)N1CCN(C)CC1 | 0.0925 |
| COc1cc2c(cc1OC)-c1cc(OCCN3CCOCC3)nc(=O)n1CC2 | -0.0263 |
| O=C(OCCCCN1C(=O)c2ccccc2C1=O)c1n[nH]c2ccccc12 | -0.019 |
| CC1CCN(C(=O)CSc2nnc(CNC(=O)c3ccco3)o2)CC1 | 2.28 |
| O=C(NCC(=O)N(c1cccnc1)C(C(=O)NC1CCCC1)c1ccco1)c1cccs1 (stereo not given) | -0.357 |
| CN(C(=O)c1ccccc1Cl)c1ccccc1 | -0.42 |
| CNc1nc(Sc2ccc(C)cc2)cc(C(F)(F)F)n1 | -0.103 |
| CCc1ccccc1-n1c(SCC(=O)N2CCCC2)nnc1-c1ccccn1 | -0.215 |

| SMILES | z-score |
| --- | --- |
| Brc1ccc(-c2csc(/N=C/N3CCOCC3)n2)cc1 | -0.844 |
| COC(=O)c1oc2ccc(Br)cc2c1NC(C)=O | 0.151 |
| O=C(O)C(CC(=O)N1CCOCC1)NCc1ccccc1 (stereo not given) | -0.198 |
| CN1CCc2c(sc3c2c(=O)n(-c2cccc(Cl)c2)c2nncn32)C1 | -0.00151 |
| N#Cc1c(C#N)c(-c2ccccc2)n(-c2ccc(C(=O)O)cc2)c1N | -0.238 |
| CC1CN(S(=O)(=O)c2ccc(C(=O)Nc3nnc(-c4ccc5c(c4)CCCC5)o3)cc2)CC(C)O1 (stereo not given) | 2.42 |
| Cc1ccc(N2CC(C(=O)NC3=NCCS3)CC2=O)cc1 (stereo not given) | 1.4 |
| CCCCNC(=O)Cn1c(=O)n(C)c2ccccc21 | -0.417 |
| Cc1nc2ccccn2c1/C(O)=C1\C(=O)C(=O)N(CCN(C)C)C1c1cccnc1 (stereo not given) | 0.486 |
| O=C(N1CCOCC1)C1(c2ccc(Cl)cc2)CCCC1 | 0.767 |
| CCn1c(C)nc2cc(C(=O)N=Nc3c(O)[nH]c4c(C)cc(C)cc34)ccc21 | -0.176 |
| CC(=O)N1CCCc2cc(S(=O)(=O)N(C)CCC#N)ccc21 | -0.413 |
| O=C(NC1=NCCS1)c1sc2cc(F)ccc2c1Cl | -0.0304 |
| CN(C)c1ccc(/C=C/c2nc3ccccc3s2)cc1 | 0.051 |
| CSc1ccccc1NC(=O)Nc1ccc(Cl)cc1 | active: 6.38 |
| O=C(c1cccc(F)c1)N1CCc2ccccc21 | -0.134 |
| CC(C)(C)n1nnnc1C(c1ccccn1)N(Cc1ccccc1)Cc1ccc(Cl)cc1 (stereo not given) | -0.111 |
| CCNC(=S)NN(c1ccccc1)c1ccccc1 | 0.837 |
| CCc1cc(=O)oc2cc(OCC=C(C)C)ccc12 | -0.201 |
| CCOc1cc(/C=N/NC(=O)CN2CCOCC2)ccc1OCc1ccccc1 | -0.0658 |
| COc1ccc(NC(=O)Cc2ccc(Cl)cc2)cc1NC(=O)c1ccco1 | -0.903 |
| CCOC(=O)Oc1ccc2c(c1)C(C)=CC(C)(C)N2C(=O)OCC | -0.886 |
